Source: PMC4336329 (PLoS ONE, 2015)
Screen size: about 310,000 compounds; about 14,000 (4.5%) showed an effect of 50% or more. Effects have a minus sign here. Some of the results follow.

biological target: human ether-à-go-go-related gene (hERG) potassium channel (human, UniProt Q12809); experiment: primary screen, population patch clamp on CHO cells stably expressing hERG
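Further: peak tail current of the secondary pulse compared with the same well before compound.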

Sequence of human ether-à-go-go-related gene (hERG) potassium channel (Q12809 whole entry, looked up): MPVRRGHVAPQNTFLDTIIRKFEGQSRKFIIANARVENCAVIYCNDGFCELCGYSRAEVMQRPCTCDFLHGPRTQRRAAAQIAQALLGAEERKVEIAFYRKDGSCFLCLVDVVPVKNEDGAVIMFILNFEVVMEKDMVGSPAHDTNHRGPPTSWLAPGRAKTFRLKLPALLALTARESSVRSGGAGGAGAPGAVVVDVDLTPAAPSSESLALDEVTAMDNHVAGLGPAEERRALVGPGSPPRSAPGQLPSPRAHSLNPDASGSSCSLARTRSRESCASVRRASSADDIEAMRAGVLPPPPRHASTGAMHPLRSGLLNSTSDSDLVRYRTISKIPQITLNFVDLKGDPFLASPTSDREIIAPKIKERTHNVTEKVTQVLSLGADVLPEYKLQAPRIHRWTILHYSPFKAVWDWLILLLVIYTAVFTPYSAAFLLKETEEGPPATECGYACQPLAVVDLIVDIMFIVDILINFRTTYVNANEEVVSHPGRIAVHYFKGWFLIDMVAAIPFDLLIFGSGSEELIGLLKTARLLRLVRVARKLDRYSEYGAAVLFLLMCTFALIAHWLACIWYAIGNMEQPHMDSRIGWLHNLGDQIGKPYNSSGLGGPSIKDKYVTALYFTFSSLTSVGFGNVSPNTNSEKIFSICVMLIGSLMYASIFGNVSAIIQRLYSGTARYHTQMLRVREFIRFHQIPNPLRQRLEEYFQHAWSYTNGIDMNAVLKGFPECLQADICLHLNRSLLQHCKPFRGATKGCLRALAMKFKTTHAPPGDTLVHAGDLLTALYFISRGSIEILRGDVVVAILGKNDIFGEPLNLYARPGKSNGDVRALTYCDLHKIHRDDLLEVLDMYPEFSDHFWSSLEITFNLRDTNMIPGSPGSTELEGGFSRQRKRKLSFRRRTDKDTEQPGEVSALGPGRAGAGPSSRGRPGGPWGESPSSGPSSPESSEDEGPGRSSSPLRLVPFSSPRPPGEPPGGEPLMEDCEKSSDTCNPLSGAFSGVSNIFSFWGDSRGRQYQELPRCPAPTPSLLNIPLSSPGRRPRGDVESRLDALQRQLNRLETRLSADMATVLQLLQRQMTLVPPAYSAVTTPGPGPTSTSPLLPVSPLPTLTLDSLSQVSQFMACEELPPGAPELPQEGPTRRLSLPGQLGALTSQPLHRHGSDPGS

| Structure (SMILES) | hERG current change (%, negative = inhibition) at 10uM [%] |
| --- | --- |
| CCCC(=O)C1=C(O)C(C(=O)OC)C(C)(C)CC1=Nc1ccc(N)cc1 (stereo not shown) | -33.8 |
| Cc1ccc(C)c(-n2cc(CN3CCNC(=O)CC3)c(-c3ccccc3)n2)c1 | -43.5 |
| COC(=O)Cn1c(=NC(=O)c2ccc(Cl)s2)sc2cc(C)ccc21 | 30.8 |
| CC(C)(C)NC(=O)C1N(c2cccnc2)C(=O)C2C(C(=O)Nc3ccccc3)C3(C)C=CC21O3 (stereo not shown) | -10.5 |
| COc1cc(/C=C/C(=O)N(C)c2ccccc2C(=O)O)cc(OC)c1OC | 3.92 |
| CN(CC(=O)NCc1ccccc1)S(=O)(=O)c1cnc[nH]1 | 9.43 |
| COc1ccccc1CNC(=O)COC(=O)Cc1c(F)cccc1Cl | 8.03 |
| COc1ccc(S(=O)(=O)Nc2nc3ccccc3nc2Nc2cccc(C(=O)O)c2)cc1 | 8.16 |
| Cc1ccc(-n2ncc3c(NCc4ccco4)ncnc32)c(C)c1 | -8.98 |
| CSc1cccc(NC(=S)N2CCC(N(C)C(C)C)CC2)c1 | -16.2 |
| COc1ccc(S(=O)(=O)Nc2nc3c(s2)CCCC3)cc1 | 12.4 |
| O=C(COc1ccccc1Cl)NCCNC(=O)c1cnccn1 | 5.82 |
| O=C(NCc1cccc(Cl)c1)c1ccc(CS(=O)Cc2ccc(Cl)cc2)o1 (stereo not shown) | -62.1 |
| CCN1C(=O)/C(=C/c2cnn(CC)c2C)SC1=S | 5.73 |
| COc1ccc(C(=O)N/N=C(/C)c2cccc(NC(=O)C(F)(F)F)c2)cc1 | 10.7 |
| Cn1cnc([N+](=O)[O-])c1Sc1ccccc1 | -3.21 |
| CCOC(=O)n1c(=O)n(Cc2ccc(F)cc2)c2ccccc21 | -36.2 |
| Cc1ccc(OCC(=O)Nc2cccnc2Cl)cc1C | 16.3 |
| N#Cc1ccc(NC(=O)Cn2cnc(S(=O)(=O)N3CCOCC3)c2)cc1 | 11.9 |
| Cc1cccc(NC(=O)N[C@@H](C)C(=O)O)c1 | -3.03 |
| COc1ccc(-c2cc(C)no2)cc1S(=O)(=O)N1CCOc2ccc(C)cc21 | 18.8 |
| CCOc1cc2[nH]c(=O)n(CCC(=O)N3CCN(c4ccccc4OC)CC3)c(=O)c2cc1OCC | 2.3 |
| COc1cccc(NC(=O)c2cnsn2)c1 | 3.19 |
| Cc1nc(NCc2ccco2)nc2c1C(=O)CC(C)C2 (stereo not shown) | -10.2 |
| CO/N=C/C(C(C)=O)C(=O)Nc1ccc(Cl)cc1Cl (stereo not shown) | 16.1 |
